The full ranking holds about 33,000 sequences; the median of “E-score (-0.5 to 0.5)” is about -0.043, and the highest 2% start at about 0.37. The list shows a part of the results.

The test concerns the target T1, Upc2 (UniProt Q12151).
T1 sequence: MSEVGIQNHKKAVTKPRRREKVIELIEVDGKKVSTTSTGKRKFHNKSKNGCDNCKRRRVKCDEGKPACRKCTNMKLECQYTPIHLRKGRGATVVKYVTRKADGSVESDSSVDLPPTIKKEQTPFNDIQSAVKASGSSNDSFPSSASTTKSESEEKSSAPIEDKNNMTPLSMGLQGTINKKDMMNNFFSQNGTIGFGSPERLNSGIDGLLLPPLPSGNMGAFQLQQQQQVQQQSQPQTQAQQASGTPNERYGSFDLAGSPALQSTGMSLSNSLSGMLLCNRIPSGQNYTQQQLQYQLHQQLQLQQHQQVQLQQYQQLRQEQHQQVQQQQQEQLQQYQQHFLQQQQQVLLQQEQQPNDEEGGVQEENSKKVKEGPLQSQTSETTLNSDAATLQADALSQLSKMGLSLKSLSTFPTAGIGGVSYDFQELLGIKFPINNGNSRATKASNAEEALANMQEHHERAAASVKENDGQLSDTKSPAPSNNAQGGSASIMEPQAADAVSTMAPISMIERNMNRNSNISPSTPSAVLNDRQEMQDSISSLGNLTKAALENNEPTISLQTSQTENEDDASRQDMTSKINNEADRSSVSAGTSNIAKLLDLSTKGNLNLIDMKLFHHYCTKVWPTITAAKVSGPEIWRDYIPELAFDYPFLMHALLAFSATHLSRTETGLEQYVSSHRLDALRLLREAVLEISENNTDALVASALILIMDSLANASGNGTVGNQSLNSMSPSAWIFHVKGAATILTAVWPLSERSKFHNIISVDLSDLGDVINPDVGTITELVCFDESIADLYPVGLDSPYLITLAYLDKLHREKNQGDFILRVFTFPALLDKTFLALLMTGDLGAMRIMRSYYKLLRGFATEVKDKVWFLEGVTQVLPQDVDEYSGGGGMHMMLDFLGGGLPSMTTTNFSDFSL
The test is described as follows: PBM E-score (8-mer binding enrichment) (E-score (-0.5 to 0.5)); higher = stronger / more preferred TF binding; most listed sequences are background and not binding sites. Particulars: protein concentration: 200 nM; construct: GST-full length. The method in brief:
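The E-score, a modified Wilcoxon-Mann-Whitney statistic, was computed by the Universal PBM Analysis Suite for every ungapped eight-base word pooled with its reverse complement. Scans behind it were normalised with masliner after bound GST-tagged yeast transcription factors were detected with fluorescent anti-GST. The proteins, at about 100-200 nM, had been applied to universal all-10-mer Agilent arrays made double-stranded by primer extension.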
As for GGTTAGAC, the “PBM E-score” value was -0.124.

For the sequence GGGCGAAA, the “PBM E-score” value was -0.0449.

On to ATTCTGCC, for which the “PBM E-score” value was -0.241.

With CAGAGACC, the “PBM E-score” value was -0.16.

With AATAGAAG, the “PBM E-score” value is -0.0451.

Regarding TAGCAGGA, the “PBM E-score” value was -0.26.

Turning to AAGTTCTG, the “PBM E-score” value was -0.106.

With ACGTAATA, the “PBM E-score” value came out at 0.146.

With GGCCCTTA, the “PBM E-score” value was -0.0472.

Consider ATTATAGA, for which the “PBM E-score” value worked out at 0.0585.

With CACTTAGG, the “PBM E-score” value is -0.0903.

As to CGGTTACG, the “PBM E-score” value came out at 0.34.

As for CTCTTCGC, the “PBM E-score” value is -0.12.

As to CAGGGGAG, the “PBM E-score” value is -0.215.

In the case of AGGGTTCC, the “PBM E-score” value was -0.109.

Regarding ACAATAAC, the “PBM E-score” value was -0.0383.

CCGGCGAC: the “PBM E-score” value is -0.211.

As for GCAACTCA, the “PBM E-score” value is -0.0869.

For CTACCCAG, the “PBM E-score” value was -0.184.

In the case of CCGCATCC, the “PBM E-score” value is -0.0625.

As to TAGCCTGA, the “PBM E-score” value is -0.0528.

On to CTGAAGCA, for which the “PBM E-score” value is -0.189.

As to ACAAAAGG, the “PBM E-score” value was -0.00334.

Turning to ACTAGAAC, the “PBM E-score” value turned out to be 0.0839.

In the case of ACTTGCCA, the “PBM E-score” value is -0.165.

CTCATAGC: the “PBM E-score” value is -0.119.

For the sequence AGGGGGAT, the “PBM E-score” value was -0.156.

Regarding GAATTTTA, the “PBM E-score” value stood at 0.0127.

As for ATGTGAGG, the “PBM E-score” value was -0.0218.

Turning to CCACAGAA, the “PBM E-score” value came out at 0.0391.

Take GAAAACGC: the “PBM E-score” value was 0.0704.

Regarding ATTGGGTA, the “PBM E-score” value was -0.00791.

As for AATCGCAC, the “PBM E-score” value was determined as 0.00377.

Turning to AACACGAT, the “PBM E-score” value was 0.0205.

With ATTTATTC, the “PBM E-score” value worked out at 0.107.

As to GGTACATA, the “PBM E-score” value was -0.0297.

Take GATCGATA: the “PBM E-score” value worked out at 0.0839.

Consider AGAGTCAT, for which the “PBM E-score” value is -0.205.

As to GCGCGTTA, the “PBM E-score” value is 0.191.

Regarding AGCGTCAA, the “PBM E-score” value is -0.111.

As for ATTGACGC, the “PBM E-score” value is -0.125.

In the case of ACTTCGAA, the “PBM E-score” value stood at 0.132.

ACCCCCAC: the “PBM E-score” value was -0.367.

Regarding TAAGGGGA, the “PBM E-score” value was -0.157.

On to ATAACAAT, for which the “PBM E-score” value is -0.126.

Take ATCATCGG: the “PBM E-score” value is -0.104.

Turning to AAGGACCA, the “PBM E-score” value was -0.0722.

Take ATATCGCA: the “PBM E-score” value was -0.0659.

For AGCGGGAT, the “PBM E-score” value was -0.032.

Take CAGTATCC: the “PBM E-score” value is -0.0132.

Turning to CGGATAAC, the “PBM E-score” value was found to be 0.0993.

Take GAACCGAC: the “PBM E-score” value was 0.234.

For GGGCGCAC, the “PBM E-score” value was -0.173.

On to CTCCCTAC, for which the “PBM E-score” value is -0.13.

With CGTGGTCA, the “PBM E-score” value was -0.227.

As to ATAAAATG, the “PBM E-score” value is 0.0962.

In the case of AATATTAC, the “PBM E-score” value is 0.192.

Consider ACTCTGGC, for which the “PBM E-score” value is -0.202.

With GGAGACTA, the “PBM E-score” value was -0.181.

On to ATTTCATG, for which the “PBM E-score” value is -0.244.

Take GATATGGC: the “PBM E-score” value was -0.305.

With CCGGGAGG, the “PBM E-score” value was -0.261.

On to CGAAATGA, for which the “PBM E-score” value stood at 0.1.

For the sequence CAGAAGGC, the “PBM E-score” value is -0.152.

Regarding CTGTTGGA, the “PBM E-score” value is -0.173.

With AGACAGAA, the “PBM E-score” value stood at 0.0179.

In the case of ATTGAGTA, the “PBM E-score” value stood at 0.0353.

Turning to GGAAGAGA, the “PBM E-score” value is -0.194.

With CCGCCAGC, the “PBM E-score” value was -0.228.

Regarding GAACGTCA, the “PBM E-score” value is -0.137.

With CGGTATTA, the “PBM E-score” value was -0.0185.

On to ACAGATGG, for which the “PBM E-score” value is -0.274.

Consider AGGATGAC, for which the “PBM E-score” value was -0.0854.

Consider ATGGTCGA, for which the “PBM E-score” value is 0.0473.

In the case of ACACGTGT, the “PBM E-score” value was 0.188.

Turning to TACACTAA, the “PBM E-score” value is -0.033.

Consider ACATCACG, for which the “PBM E-score” value is 0.0904.

With ACCGCCCC, the “PBM E-score” value was 0.156.

For ATGAGATG, the “PBM E-score” value is -0.243.

With CCCCGCTC, the “PBM E-score” value is -0.142.

Consider ACGGTCCA, for which the “PBM E-score” value was 0.0906.

On to CGATCAAC, for which the “PBM E-score” value turned out to be 0.194.

Regarding GCTATATA, the “PBM E-score” value was 0.0781.

For the sequence GTCTGCAC, the “PBM E-score” value was -0.298.

Regarding AGCTTAAG, the “PBM E-score” value is -0.141.

With AAAGAGCC, the “PBM E-score” value is -0.135.
